Test results taken from the supplement of paper PMC10338343.
± gives the standard deviation. Whole data set: some 6,600 sequences, median “pre-steady-state target cleavage rate” near 0.07, cut for the highest 2% near 0.72. The entries are a selection whose mix differs from that of the whole data set.

The sequences below were run on MIWI (PIWIL1) piRISC loaded with Kctd7 piRNA (30 nt) (assay: pre-steady-state target cleavage rate (min^-1); MIWI and MILI are mouse PIWI proteins and EfPiwi is from a freshwater sponge; tags in brackets are library labels; higher = faster piRNA-guided slicing of the target). Conditions: guide: Kctd7 piRNA 5'p-UGUUAAUCUCUCAGAGAAGGUGACAGUGAU; auxiliary factor: 500 nM mouse GTSF1.
How it was run: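 Reactions were run for 0–8 or 0–960 min at 33 °C in HEPES–potassium acetate buffer, combining 1 nM active affinity-purified piRISC with one synthetic guide, […] transcribed, DNA-blocked target RNA library and, in some cases, 500 nM GTSF1 partner protein. Sequencing of uncleaved targets followed, with normalisation to depth and to weakly complementary targets. Three trials were pooled, k3 was capped at 0.0001 min^-1, and the pre-steady-state cleavage rate was taken from a burst-and-steady-state fit.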
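Also: 1 nM active piRISC with 0.1 nM target library at 33 °C single turnover.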

| Sequence | pre-steady-state target cleavage rate |
| --- | --- |
| UUCACUGUCAGCUUCUCUGUGAGAUUAACA | 0.237 ± 0.012 |
| UAGUGACAGACCUUCUCUGAGAGAAAUACA | 0.00954 ± 0.0041 |
| UAGUGACACACCUUCUCUGAGAGGAUUAACA | 0.168 ± 0.021 |
| UAGUGACACACCUUCUCUCAGAGAUUUACA | 0.0226 ± 0.0068 |
| UUCACUGUCACCUUCACUGUGAGAUUAACA | 0.156 ± 0.013 |
| AUCACUGAGUCCUUCUCUGAGAGAUUUUGA | 0.0434 ± 0.013 |
| UAGUCAGUCACCUUCUCUGAGAGAUUUUGA | 0.0543 ± 0.016 |
| UUCACUGUCACCUUCUCAGAGAGAUAAACA | 0.0742 ± 0.01 |
| UACUCUGUCACCUUCUCUGAGAGAAUAACA | 0.523 ± 0.075 |
| UACACUGUCUCCUUCUGUGAGAGAUUAACA | 0.427 ± 0.029 |
| UAGUCUGUCACCAUCUCUGAGAGAUUAAGA | 0.0769 ± 0.013 |
| UACACUGUCACCUUAUCUGAGAGAUUAACA | 0.548 ± 0.023 |
| UACACUGUCACCUUGUCUGAGAGAUUAUGA | 0.163 ± 0.04 |
| UAGUGACAGACGUUCUCUGAGAGUUUAACA | 0.00697 ± 0.0027 |
| UAGACUCUGACCUUCUCUGAGAGAUUAACA | 0.0488 ± 0.0073 |
| UUCUGAGUCACCUUCUCUGAGAGAUUAAGA | 0.15 ± 0.022 |
| UAGUCUGUGACCUUCUCUGAGACAUUAACA | 0.0359 ± 0.0047 |
| UUCACUGUCACCUACUCUGAGAGUUUAACA | 0.314 ± 0.041 |
| UAGUGACAGACCAUUCUCUGAGAGAUUAACA | 0.0144 ± 0.0049 |
| AUCACUGUCACCUUCUCUCAGAGAUUAAGA | 0.0515 ± 0.0097 |
| UAGUGACUCACCUAGUCUGAGAGAUUAAGA | 0.00421 ± 0.0041 |
| UAGUGACACACCUUCUCUGAGAGAAUAACA | 0.156 ± 0.032 |
| UAGUCUUGUCACCUUCUCUGAGAGAUUAACA | 0.686 ± 0.1 |
| UAGUGUGUCACCUUCUCUGAGAGGAUUAACA | 0.215 ± 0.023 |
| UAGUCUGUCACCUUCUGUGAGAGAAUAACA | 0.102 ± 0.014 |

| Sequence | pre-steady-state target cleavage rate |
| --- | --- |
| UAGUGAGUCACCUUCUCUCAGAGAUUAUCA | 0.0673 ± 0.015 |
| UAGUGUGUGACCUUCUCUGAGAGAUUUACA | 0.191 ± 0.022 |
| AUCACUGACACCUACUCUGAGAGAUUAACA | 0.435 ± 0.041 |
| AUCACUGUGACCUUGUCUGAGAGAUUAACA | 0.16 ± 0.025 |
| UAGUGACAGACCUACUCUGAGAGAUUAACA | 0.0213 ± 0.0051 |
| UUCACUGUCACCUUCUCUGAGAGAAAUACA | 0.179 ± 0.038 |
| UAGUGACAGUCCUUCUCUGAGAGAUUAAGA | 0.0171 ± 0.003 |
| UAGUGACACACCUUCUCUGUGACAUUAACA | 0.0527 ± 0.0094 |
| UAGUGACUCACCUUCUCUAAGAGAUUAACA | 0.309 ± 0.023 |
| UAGUGAGUCACCUUCUCUGAGUCAUUAAGA | 0.00562 ± 0.003 |
| UAGUGUGUCACCUUCUCUGAGAGUUAUUGA | 0.128 ± 0.039 |
| UACACUGUCACCUUCUGUGAGAGAUUAUGA | 0.0196 ± 0.0073 |
| UAGACUGUCAACUUCUCUGAGAGAUUAACA | 0.726 ± 0.049 |
| UAGUGACACACCUUCAGUGAGAGAUUAACA | 0.0157 ± 0.0053 |
| UAGACUGUCUCCAUCUCUGAGAGAUUAACA | 0.639 ± 0.049 |
| UUCACUGUCACCUACUCUGAGAGAUUUACA | 0.385 ± 0.051 |
| UUCACUGACACCUUCUCUGAGAGUUUAACA | 0.591 ± 0.11 |
| UUCACUGUCACGUUCUCUGAGAGAUUAAGA | 0.117 ± 0.018 |
| UACACUGUCACCUUGACUGAGAGAUUAAGA | 0.00874 ± 0.0072 |
| UAGACAGUCACCUUCUCUGAGAGAUAAACA | 0.397 ± 0.041 |
| UACACUGUGACCUUGUCUGAGAGAUUAACA | 0.0711 ± 0.013 |
| UUCACUGUCACCUUCUCUGAGAGUAAUUGA | 0.299 ± 0.086 |
| UAGUGAGUCACGUUCUCAGAGAGAUUAACA | 0.171 ± 0.017 |
| UAGUGACACACCUUCUCUGAGAGAUUAAACA | 0.458 ± 0.044 |
| UAGUGACACACCGUUCUCUGAGAGAUUAACA | 0.239 ± 0.02 |

| Sequence | pre-steady-state target cleavage rate |
| --- | --- |
| UAGUCUGACACCUUCUCUGAGAGAUUAAGA | 0.133 ± 0.019 |
| UACACUCUCACCUUCUCUGAGAGAUUUUGA | 0.0675 ± 0.013 |
| UAGUCUGUCACCUUCUCUGAGAGAUCUAACA | 0.289 ± 0.049 |
| AUCACUGUCACCUUCUGUGAGAGAUUAACA | 0.644 ± 0.033 |
| UAGUGAGUCACCUACUCUGAGAGAUUUACA | 0.311 ± 0.055 |
| UUCACUGUCACCUUCUCAGAGUGAUUAACA | 0.0211 ± 0.0051 |
| UAGUGAGUCGACCUUCUCUGAGAGAUUAACA | 0.156 ± 0.019 |
| UAGUGAGACACCUUCUCUGAGAGAUUAAGA | 0.0909 ± 0.019 |
| UAGUGACAGAGCUUCUCUGUGAGAUUAACA | 0.00703 ± 0.0036 |
| UACGCUGUCACCUUCUCUGAGAGAUUAACA | 0.745 ± 0.038 |
| UAGUCUGUCACCUUCUCAGAGAGAAUAACA | 0.0484 ± 0.01 |
| UAGUGAGUCACCUUCUCUCAGAGAUUAACA | 0.0958 ± 0.0087 |
| UAGUGAGUCACCUUCUCUGAGAAGAUUAACA | 0.0342 ± 0.0097 |
| UAGUGACAGUCCUUCUCUGAGACUUUAACA | < 0.0001 |
| AUCACUGUCACCUUCUCUGAGUAGAUUAACA | 0.025 ± 0.0077 |
| UAGUCUGUCACCUUCUCUGACAGAUUAUCA | 0.00526 ± 0.0041 |
| UAGUGACAGUGGAUCUCUGAGAGGUUAACA | < 0.0001 |
| UAGACUGUCAGCUUCUCUCAGAGAUUAACA | 0.0676 ± 0.0041 |
| AUCACUGUCACCUUCUCUGUGAGAUUAUCA | 0.127 ± 0.026 |
| UAGUGUGUCACCUCUCUGAGAGAUUAACA | 0.263 ± 0.029 |
| UACACUGUCUCCUUCUCUGAGAGAUUAAGA | 0.0715 ± 0.018 |
| UACACUGUCACCUUCUCUGAGAGAUAUACA | 0.255 ± 0.04 |
| UAGUGUGUCACCUUCUCUCUGAGAUUAACA | 0.0168 ± 0.004 |
